Hit rate of the full screen: of about 43,000 compounds, about 200 (0.47%) were called active. Not shown: some 12% with an inconclusive outcome. Calls come from the whole dose curve; as a rule, active = well fitted cell-killing curve with a large enough effect; inconclusive = small, poorly fitted or top-dose-only effect, or effect the other way; inactive = flat fitted curve, though single readings scatter. The list shows a part of the results.
% is set by controls: 0 for no effect and ±100 for the full control effect.

The experiment can be described thus: Cell viability qHTS assay in S16 Pmp22-F2sN cells. Note: nearly all actives have a fitted effect of over 65% in size. The settings on record: S16 Pmp22-F2sN Schwann cells (luciferase reporters placed in the Pmp22 gene) viability, CellTiter-Glo, 24 h; series mostly up to 57.5 µM; activity change, negative = cytotoxicity: at the top concentration. A digest of the protocol: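 Rat S16 Schwann reporter line, 24 h treatment with library compounds delivered at 23 nL per well. Cell viability by CellTiter-Glo luminescence.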
For orientation: In qHTS, concentration-response curves come from the screen itself.
In the case of `Cc1nn(CCCC(=O)Nc2cc(C(F)(F)F)ccc2Cl)c(=O)c2c1sc1ccccc12`, the “activity change, negative = cytotoxicity” value is inactive: 1.87%.
Next, `CCc1nn(CC(=O)N(CC)Cc2ccccc2)c(=O)c2cc3occc3n12`: inactive: 6.29%; `CCN(CC)C(=O)c1cnn(-c2ccc(F)cc2)c1-n1cccc1`: inactive: 2.28%.
For `CCNC(=O)c1c(C)oc2ncn(C)c(=O)c12` the value was inactive: -6.15%.
Next, `COc1ccc(-c2c(C#N)c(SCC(=O)Nc3ccc(Br)cc3)nc(C)c2C(=O)Nc2ccccc2)cc1`: inactive: -1.68%; `COC(=O)c1ccccc1NC(=O)c1cc2c(s1)-c1ccccc1OC2`: inactive: -15.2%; `Cc1cc(C)c(S(=O)(=O)NCCc2cc3ccc(C)cc3[nH]c2=O)c(C)c1`: inactive: 15.4%.
As to `CC1=C(C(=O)N2CCCCC2)C(c2cccc(Cl)c2)n2c(nc3ccccc32)N1` (stereo unspecified), the “activity change, negative = cytotoxicity” value was inactive: 15.6%.
Next, `O=C(CSc1nc(-c2ccccc2)c2ccccc2n1)Nc1ccc(F)cc1`: inactive: 2.61%.
For `COc1ccc(NC(=O)COc2ccc(S(=O)(=O)NC3CCCCC3)cc2)c(OC)c1`, the “activity change, negative = cytotoxicity” value was inactive: 24.9%.
Take `O=C(CCCc1nc(-c2ccccc2)no1)Nc1cc(C(F)(F)F)cc(C(F)(F)F)c1`: the “activity change, negative = cytotoxicity” value is inactive: 4.9%.
On to `Cc1ccc(CNC(=O)Cn2cc(S(=O)(=O)Cc3cccc(Cl)c3)c3ccccc32)cc1`, for which the “activity change, negative = cytotoxicity” value was inactive: 0.622%.
Take `COc1ccc(-c2nc3nc(C)cc(Nc4cccc(C(F)(F)F)c4)n3n2)cc1`: the “activity change, negative = cytotoxicity” value was inactive: 4.9%.
For `CCOc1ccc(NC(=O)c2cc(S(=O)(=O)N3CCCC3)c[nH]2)cc1` the value was inactive: -3.58%; for `CC1=C(C(=O)Nc2ccccc2C)C(c2ccco2)n2ncnc2N1` (stereo unspecified), inactive: 14.8%.
Regarding `Cc1sc(-n2cccc2)c(C(C)NC(=O)Nc2ccccc2Cl)c1C` (stereo unspecified), the “activity change, negative = cytotoxicity” value is inactive: -10%.
As for `Cc1noc(Cn2c(=O)c3ccccc3n(CC(=O)Nc3ccc(F)cc3F)c2=O)n1`, the “activity change, negative = cytotoxicity” value was inactive: -17.8%.
Take `O=C(Nc1nnc(S(=O)(=O)N2CCCCC2)s1)c1ccc(F)cc1`: the “activity change, negative = cytotoxicity” value was inactive: -22%.
For `Cc1cc(C)c(Cn2c3ccccc3c3cnn(CC(=O)NCc4ccc(Cl)cc4)c(=O)c32)c(C)c1` the value was inactive: -1.86%.
For `COc1ccc(-c2nc3scc(CCNS(=O)(=O)c4ccc(F)c(C(F)(F)F)c4)n3n2)cc1OC`, the “activity change, negative = cytotoxicity” value was inactive: -19.8%.
Next, `COC(=O)c1scc(-c2ccc(C)cc2)c1S(=O)(=O)Nc1cccc(Cl)c1C`: inactive: 10.4%; `Cc1ccc(OCCn2cc(C(=O)c3ccco3)c3ccccc32)cc1C`: inactive: -29.5%; `Cc1ccc(NC(=O)c2cnc(N3CCCCC3)c3ccccc23)cc1Cl`: inactive: -5.27%.
With `CCOC(=O)c1sc(NC(=O)C(C)Sc2nc(-c3ccccc3)cc(C(F)(F)F)n2)c(C(=O)OC)c1C` (stereo unspecified), the “activity change, negative = cytotoxicity” value is inactive: 10.5%.
`CCOc1ccc(C(=O)Nc2ccc(-c3nc4cc(C)ccc4o3)cc2)cc1`: the “activity change, negative = cytotoxicity” value was inactive: -2.39%.
With `O=C(CCCCn1c(=O)c2ccccc2n(CC(=O)Nc2ccccc2)c1=O)NCc1ccccc1Cl`, the “activity change, negative = cytotoxicity” value was inactive: 10.8%.
For `Cc1cccc(N2CCN(S(=O)(=O)c3ccc4oc(=O)c5ncn(C)c5c4c3)CC2)c1C`, the “activity change, negative = cytotoxicity” value is inactive: -0.814%.
As to `CCc1nnc2c3ccccc3nc(Nc3ccccc3OC)n12`, the “activity change, negative = cytotoxicity” value is inactive: -0.441%.
Next, `Cc1c(C)n(Cc2ccccc2)c2ccc(C(=O)NCc3ccc(OC(C)C)cc3)cc12`: inactive: 6.01%; `CCN(CC)CCCNC(=O)C1CCN(S(C)(=O)=O)CC1`: inactive: 18%; `COc1ccc(Nc2nc3ccc(Cl)cc3n3nnnc23)cc1OC`: inactive: -6.59%.
Take `COc1ccc(NC(=O)c2ccc(NC(=O)CCS(=O)(=O)c3cccs3)cc2)cc1OC`: the “activity change, negative = cytotoxicity” value is inactive: 13.6%.
`CCOC(=O)c1cc(-c2ccccc2)n(CCC(=O)Nc2cc(OCC)ccc2OCC)c1C`: the “activity change, negative = cytotoxicity” value is inactive: -12.2%.
Turning to `CCn1c(NCc2ccc(OC)c(OC)c2)nc2ccccc21`, the “activity change, negative = cytotoxicity” value was inactive: -13.4%.
For `Cc1cccc(NC(=O)CN2C(=O)c3ccccc3Sc3ncccc32)c1C` the value was inactive: 7.25%.
For `Cc1cccc(CCNC(=O)C2CCN(c3ncnc4c3nc3n4CCCCC3)CC2)c1` the value was inactive: 2.9%.
For `CCOc1ccccc1CNC(=O)c1ccc2c(c1)sc1nc(-c3ccccc3)cn12` the value was inactive: 8.88%; for `COc1ccc(CCNC(=O)CSC2=Nc3ccccc3C3=NC(CCC(=O)NCc4ccccc4)C(=O)N23)cc1OC` (stereo unspecified), inactive: -10.8%; for `Cc1noc2ncnc(N3CCCC(C(=O)NC(C)C)C3)c12` (stereo unspecified), inactive: 4.39%.
As for `Cc1ccn2c(c1)nc(=O)c1cc(S(=O)(=O)N3CCCCC3)c(Cl)cc12`, the “activity change, negative = cytotoxicity” value was inactive: 8.12%.
Turning to `CCc1ccc(NC(=O)c2sc3nc(C)c(C(=O)Nc4ccc(C)cc4C)c(-c4ccco4)c3c2N)cc1`, the “activity change, negative = cytotoxicity” value is inactive: 1.45%.
For `Cc1oc(-c2ccccc2)nc1CNC(=O)NC1CCCCC1` the value was inactive: 1.82%.
On to `Cc1c(NC(=O)c2cc(-c3ccc(Br)cc3)on2)c(=O)n(-c2ccccc2)n1C`, for which the “activity change, negative = cytotoxicity” value was inactive: -2.62%.
Turning to `CCc1ccccc1NC(=O)CN(c1ccc(OC)cc1)S(=O)(=O)c1c(C)n[nH]c1C`, the “activity change, negative = cytotoxicity” value was inactive: -15.3%.
Turning to `Cc1cccc(-c2nc3scc(CCNS(=O)(=O)c4ccc(F)cc4C)n3n2)c1`, the “activity change, negative = cytotoxicity” value is inactive: -1.53%.
On to `CCOC(=O)c1c(NC(=O)/C=C/c2ccc(OCC)c(OC)c2)sc2c1CCC2`, for which the “activity change, negative = cytotoxicity” value is inactive: 13.2%.
Turning to `COc1ccc(OC)c(CNC(=O)c2cc3ccc4cccnc4c3[nH]2)c1`, the “activity change, negative = cytotoxicity” value was inactive: -5.58%.
As to `O=C(Cn1nnc2sc(-c3ccccc3)cc2c1=O)Nc1cccc(C(F)(F)F)c1`, the “activity change, negative = cytotoxicity” value was inactive: 17.9%.
For `CC(C)(C)OC(=O)N1CCC(c2nnc(SCc3ccccc3F)o2)CC1` the value was inactive: 1.97%.
As for `O=c1c2oc3ccccc3c2n(Cc2ccccc2)c(=O)n1Cc1ccco1`, the “activity change, negative = cytotoxicity” value was inactive: -0.998%.
Regarding `COc1ccc(C)cc1NC(=O)C(=O)NCCc1csc2nc(-c3ccccc3F)nn12`, the “activity change, negative = cytotoxicity” value was inactive: 4.89%.
Next, `Cc1ccccc1Nc1c(-c2c[nH]c3ccccc23)nc2ccccn12`: inactive: 2.29%; `CCn1nnc2cc(C(=O)Nc3ccc(C)cc3Br)ccc21`: inactive: -1.81%; `COc1cc2c(=O)c(S(=O)(=O)c3ccc(C(C)C)cc3)cn(Cc3ccccc3C)c2cc1OC`: inactive: -17.9%.
Regarding `Cc1ccc(C(=O)NCC(c2ccco2)S(=O)(=O)c2ccccc2)cc1C` (stereo unspecified), the “activity change, negative = cytotoxicity” value was inactive: 3.84%.
For `CCOC(=O)c1c(C)c(-c2ccccc2)n(CC(=O)NCc2ccccc2)c1C` the value was inactive: 2.42%.
In the case of `CCOC(=O)c1ccc(NS(=O)(=O)c2ccc3c(c2)CCN3C(=O)CC)cc1`, the “activity change, negative = cytotoxicity” value was inactive: -11.3%.
On to `COc1ccc(N2CCN(S(=O)(=O)c3cc(Br)cc4c3N(C(=O)C3CC3)CC4)CC2)cc1`, for which the “activity change, negative = cytotoxicity” value is inactive: 8.51%.
For `CC(C)(C)OC(=O)N1CCC(c2c(C(=O)N3CCN(c4ccccn4)CC3)cnn2-c2cccc(F)c2)CC1` the value was inactive: -0.388%.
For `Cc1ccc(NC(=O)Cn2c(=O)n(Cc3ccco3)c(=O)c3sc4ccccc4c32)c(C)c1` the value was inactive: 17.7%.
For `COc1ccc(-n2nc(C(=O)N3CCCCC3)c3c4ccccc4n(C)c3c2=O)cc1Cl` the value was inactive: 0.776%.

Source of the values: PubChem BioAssay AID1508642 (National Center for Advancing Translational Sciences (NCATS), 2021).
